The values below come from the supplement of paper PMC11417369.

The list shows a part of the results.

The assay concerns PfHDP1 homeodomain (GST-tagged). Description: gcPBM binding intensity (ln(normalized median fluorescence intensity)); higher = stronger DNA binding. An outline of the steps: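 GST-tagged P. falciparum DNA-binding domains, expressed in E. coli (about 25 μg on average), were applied for 1 h to an Agilent 4 × 180k array of primer-extended double-stranded 36-bp intergenic genomic probes plus negative controls. The binding buffer was 1× PBS with 1% milk, 0.2 mg/ml BSA, 0.5% salmon testes DNA and 0.03% Triton X-100. Bound protein was detected with Alexa488 anti-GST antibody and scanned at 488 nm. Binding intensity is the highest Masliner-normalised natural-log median intensity across replicate spots of either probe orientation.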
“AACATGTTAAAATAAACACACAGCTAAGGTTTTTTT [CACACA_site157]”: the “gcPBM binding intensity (ln)” value was found to be 6.31.
With “AAAAAAAAAAAAAAATGTACAAATAGTAGTTACAGA [XGTACX_site2531]” the figure was 6.34; with “ATGTTTTACAAAAACACACAAATGAATATAAACATA [CACACA_site6667]”, 6.66; with “TTTATTATATATAAAAGTACACATTGTAAGGAAACA [XGTACX_site8560]”, 6.93.
In the case of “AAATATATATGTATATGTACTTATTTATTTAAAAGG [XGTACX_site4093]”, the “gcPBM binding intensity (ln)” value was determined as 6.22.
In the case of “TTTTCTGTATAAACTTGTACATATATTTCCTTGTTT [XGTACX_site5745]” it was 6.54.
With “AAAAGTGATGAGACAAGTACTAACATATTATTATTA [XGTACX_site1533]” the figure was 6.3; with “ATATGTTCTACAAAAAAGATGTCGATTTATTTTCTT [CACACA_negctrl_site1179]”, 6.35; with “AAATAAAATATCAATTAAAACAGAATTGAATTTTTA [CACACA_negctrl_site181]”, 6.18.
In the case of “TAAAAAATAAATATATGTACGCAATAAATGTGTTAA [XGTACX_site4043]” it was 6.13.
With “ACACATATGCATATATGTACATAATATATTAAACTT [XGTACX_site5975]”, the “gcPBM binding intensity (ln)” value was found to be 6.76.
In the case of “AAAAAAAAAAGACACACACACACACTAATACATACA [CACACA_site6473]” it was 6.89.
In the case of “ATAATTAACAAATACACACACACACCCCCACAAAAA [CACACA_site518]” it was 9.01.
Take “AAATTAAAATATAATACACACATAAAAAAAAAAAAA [CACACA_site4183]”: the “gcPBM binding intensity (ln)” value is 6.43.
With “TATATATTTTTTTTTTGTACTCACAATATATGTATG [XGTACX_site8024]” the figure was 6.79; with “AGTATTCATAAAAATACACACATGGAAAAATAAACT [CACACA_site6796]”, 7.03; with “TGTATAAGTATTAATACACACACAAAATAATAAAAA [CACACA_site9156]”, 7.05.
With “TACTTACATTATTTATTTATATAAAAAGTTAATTAT [XGTACX_negctrl_site433]” the figure was 6.31.
For the sequence “TTCCAAACCTCATTATGGAAAATAAAAAAATAAAAA [XGTACX_negctrl_site17]”, the “gcPBM binding intensity (ln)” value stood at 6.42.
With “TTCCAAAAAGTTATTACACACATATGTGCACATATA [CACACA_site6465]” the figure was 11.2; with “AGAATATTATATTATGCATGCATATAGAAAAATATA [TGCATGCA_site302]”, 6.81; with “ATAAAATATTTTTGAACATGCAGGTAAAAAATAAAA [TGCATGCA_site1019]”, 6.55.
With “TTTATTAGTAATTATACACACATATAAAATGAATAA [CACACA_site6754]” the figure was 6.34; with “TATATTTATAGGTACACACACACATATAAATAAATA [CACACA_site6345]”, 6.78; with “AAAAAAAAAAAAAACACACACATATATATATATATA [CACACA_site1891]”, 9.26.
In the case of “ATAAAATTATATTTTGCATGCAGGCCTTTTTCTTAA [TGCATGCA_site1030]” it was 6.93; in that of “AATTTTTTATATGTCACACATTTATTATTATTATTA [CACACA_site4198]”, 6.56.
Regarding “ACTTATAAAAACATATACCCCATCGCATTTTTTCCA [XGTACX_negctrl_site177]”, the “gcPBM binding intensity (ln)” value came out at 6.69.
Turning to “TGTAATATAAAATTTTGTACTCAAAAATTTATATAT [XGTACX_site3252]”, the “gcPBM binding intensity (ln)” value was 5.97.
For “TTTTTTTTTCTTTTCAAACACACAATTGGTATATAT [CACACA_site3321]”, the “gcPBM binding intensity (ln)” value was 6.68.
With “ATATATTTTTTGAATACACACATATTATAGGTAATA [CACACA_site6709]” the figure was 6.53; with “TGACTGTAGATATTTTGTACATAACCTAATATATAT [XGTACX_site970]”, 6.37; with “CTATTTATTTTTGATGCATGCCAAATATAGAAAAAA [TGCATGCA_site368]”, 6.37.
In the case of “CGTATAAATATACGTGCATGTAACTTTTTCTATATT [TGCATGCA_site981]” it was 9.66; in that of “TAGTAGTTATCACTAACATGCAATAATATTATTTAA [TGCATGCA_site161]”, 6.69.
As for “ATAACATATATATATACACACACATATATATATGAA [CACACA_site7983]”, the “gcPBM binding intensity (ln)” value was determined as 6.85.
In the case of “TTTTTTTTTTTTTTTTGTACACATAATATGAATAAT [XGTACX_site2661]”, the “gcPBM binding intensity (ln)” value turned out to be 6.45.
For the sequence “TTATGTACAATTTCTTCTTTCTTTTTTCCTAAAGAC [CACACA_negctrl_site1193]”, the “gcPBM binding intensity (ln)” value worked out at 6.38.
In the case of “ATAATATAATACGAAGGTACACATTTTCTTAATATA [XGTACX_site7947]” it was 6.21.
In the case of “TATTACTATGTTATAACTTTTTTAAACGTGATCATA [TGCATGCA_negctrl_site128]” it was 5.97; in that of “TATTTAAAAAGAAAAAAAAAAAAAAAAATACATATA [CACACA_negctrl_site164]”, 6.14.
Regarding “AAAAAAAAAAAATATACACACTAATATATTTTTTTA [CACACA_site4604]”, the “gcPBM binding intensity (ln)” value worked out at 6.58.
With “TATTAAATTTATCGGAGTACATTTAAATGTATATAC [XGTACX_site7975]” the figure was 6.76; with “TATATACGCAAACACACACACACATACACCCACATA [CACACA_site1724]”, 7.47.
